{
  "source": "PubChem BioAssay (NCI)",
  "test_system": "NCI-H322M lung",
  "experiment": "inhibition of tumour cell growth, NCI panel, 48 h",
  "note": "Values joined by “and” are separate entries in the source; they are usually repeats but may differ in a detail not shown here. Identical values can stand only once.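 In this assay, cells in 96-well plates receive the compound at five concentrations for 48 hours. Endpoints are linearly interpolated between the surrounding concentrations. GI50 is the concentration that inhibits growth by half. TGI denotes the concentration required for complete inhibition of growth.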",
  "data": [
    {"smiles": "C=CC[C@H](C[C@H](C[C@H](C[C@H](C[C@H](C[C@H](C[C@H](C[C@H](C[C@H](C[C@H](CCCCC)OC)OC)OC)OC)OC)OC)OC)OC)OC)OC", "values": [
      {"measurement": "TGI", "result": "> 100", "unit": "µM"}
    ]},
    {"smiles": "COc1cccc(Nc2nc(-c3cccs3)nc3cc(OC)c(OC)cc23)c1", "values": [
      {"measurement": "TGI", "result": "> 100", "unit": "µM"}
    ]},
    {"smiles": "Cc1ccc(-n2c3nc(=O)[nH]c(=O)c-3cc3cc([N+](=O)[O-])ccc32)cc1", "values": [
      {"measurement": "GI50", "result": 38.2, "unit": "µM"},
      {"measurement": "TGI", "result": 61.4, "unit": "µM"}
    ]},
    {"smiles": "Oc1[nH]c2ccccc2c1N=Nc1nc(-c2ccc(Br)cc2)cs1", "values": [
      {"measurement": "TGI", "result": "> 100", "unit": "µM"}
    ]},
    {"smiles": "C=C1C(=O)O[C@H]2[C@H]1CC/C(COC(=O)NCc1ccc(Cn3c(=O)sn(-c4ccc(OC)cc4)c3=O)cc1)=C\\CC[C@@]1(C)O[C@@H]21", "values": [
      {"measurement": "GI50", "result": 13.8, "unit": "µM"},
      {"measurement": "TGI", "result": 26.7, "unit": "µM"}
    ]},
    {"smiles": "Nn1c(Nc2ccc(S(=O)(=O)Nc3ncccn3)cc2)nnc(/C=C/c2c(O)ccc3ccccc23)c1=O", "values": [
      {"measurement": "TGI", "result": "> 100", "unit": "µM"}
    ]},
    {"smiles": "O=C1C=CC(=O)c2nc3c(cc21)CCC3", "values": [
      {"measurement": "TGI", "result": "> 100", "unit": "µM"}
    ]},
    {"smiles": "Cc1ccccc1C(=N)c1ccccc1Cc1cccc2ccccc12", "values": [
      {"measurement": "TGI", "result": "> 100", "unit": "µM"}
    ]},
    {"smiles": "N#Cc1c[nH]n2c(N=Nc3ccc(Cl)cc3)c(O)nc12", "values": [
      {"measurement": "GI50", "result": 23.5, "unit": "µM"},
      {"measurement": "TGI", "result": 91, "unit": "µM"}
    ]},
    {"smiles": "CCOC(=O)C1=C(C(=O)OCC)C2c3ccccc3C=CN2C(C(=O)OCC)=C(SC)S1", "note": "(stereo not drawn)", "values": [
      {"measurement": "TGI", "result": "> 100", "unit": "µM"}
    ]},
    {"smiles": "Cc1cccc(C)c1NC(=O)CCCC(=O)C1/C(=N/NC(=O)CC#N)CCC/C1=N\\NC(=O)CC#N", "note": "(stereo not drawn)", "values": [
      {"measurement": "TGI", "result": "> 100", "unit": "µM"}
    ]},
    {"smiles": "Nc1nc2c(c(-c3cccc(Cl)c3)n1)COC/C2=C\\c1cccc(Cl)c1", "values": [
      {"measurement": "TGI", "result": "> 100", "unit": "µM"}
    ]},
    {"smiles": "N#C/C(=C1/Sc2c(nc[nH]c2=O)N1c1ccccc1)c1nc2ccccc2[nH]1", "values": [
      {"measurement": "TGI", "result": "> 100", "unit": "µM"}
    ]},
    {"smiles": "COc1ncc(/C=C2\\OC(=O)c3ccccc32)c(OC)n1", "values": [
      {"measurement": "TGI", "result": "> 100", "unit": "µM"}
    ]},
    {"smiles": "O=C1NC(=NC(CO)Cc2ccccc2)S/C1=C\\c1ccc2ncccc2c1", "note": "(stereo not drawn)", "values": [
      {"measurement": "GI50", "result": "15.5 µM and 2.24 µM"},
      {"measurement": "TGI", "result": "> 25", "unit": "µM"}
    ]},
    {"smiles": "O=c1[nH]c(=S)[nH]c2c1C(c1ccc([N+](=O)[O-])cc1)c1c([nH]c(=S)[nH]c1=O)O2", "values": [
      {"measurement": "TGI", "result": "> 100", "unit": "µM"}
    ]},
    {"smiles": "COc1ccc(CCN=C2NC(=O)/C(=C/c3ccc4ncccc4c3)S2)cc1", "values": [
      {"measurement": "GI50", "result": "> 25", "unit": "µM"},
      {"measurement": "TGI", "result": "> 25", "unit": "µM"}
    ]},
    {"smiles": "CCOP(=O)(OCC)C(F)(F)c1ccc(CC(NC(=O)OC(C)(C)C)C(=O)O)cc1", "note": "(stereo not drawn)", "values": [
      {"measurement": "TGI", "result": "> 10", "unit": "µM"}
    ]},
    {"smiles": "O=C(/C=C/c1ccc2c(c1)OCO2)Cc1nc2ncccc2[nH]c1=O", "values": [
      {"measurement": "TGI", "result": "> 100", "unit": "µM"}
    ]},
    {"smiles": "COC(=O)c1c(C)nc2c1cc(O)c1[nH]c(C)c(C)nc12", "values": [
      {"measurement": "TGI", "result": "> 100", "unit": "µM"}
    ]},
    {"smiles": "COC(=O)CC(c1ccccc1)C1(c2ccccc2)SCCS1", "note": "(stereo not drawn)", "values": [
      {"measurement": "TGI", "result": "> 290", "unit": "µM"}
    ]},
    {"smiles": "COP(=O)(OC)C1=c2c(C)noc2=C2C=COC2C1=O", "note": "(stereo not drawn)", "values": [
      {"measurement": "TGI", "result": "> 100", "unit": "µM"}
    ]},
    {"smiles": "CCCOc1cc2ccccc2cc1C(=O)Nc1nc(N)c2c(ccc3nccc32)[nH]1", "values": [
      {"measurement": "GI50", "result": 1.06, "unit": "µM"},
      {"measurement": "TGI", "result": 2.6, "unit": "µM"}
    ]},
    {"smiles": "COc1ccc(CN2C(=O)/C(=C\\c3cc(OC)c(OC)c(OC)c3)c3ccccc32)cc1", "values": [
      {"measurement": "GI50", "result": 0.773, "unit": "µM"},
      {"measurement": "TGI", "result": 3.39, "unit": "µM"}
    ]},
    {"smiles": "C/C(=C\\CBr)CCC(Br)C(C)(C)Br", "note": "(stereo not drawn)", "values": [
      {"measurement": "TGI", "result": "> 100", "unit": "µM"}
    ]},
    {"smiles": "S=C(N/N=C(/c1ccccc1)c1ccccn1)N(Cc1ccccn1)Cc1ccccn1", "values": [
      {"measurement": "TGI", "result": 2.15, "unit": "µM"}
    ]},
    {"smiles": "Nc1cc(NN=C(c2ccc(O)cc2)c2ccc(O)cc2)c([N+](=O)[O-])cc1[N+](=O)[O-]", "values": [
      {"measurement": "GI50", "result": 2.44, "unit": "µM"},
      {"measurement": "TGI", "result": 7.49, "unit": "µM"}
    ]},
    {"smiles": "Cc1nnc(NC(=O)c2nc(S(=O)(=O)Cc3ccc(F)cc3)ncc2Cl)s1", "values": [
      {"measurement": "GI50", "result": 17.7, "unit": "µM"},
      {"measurement": "TGI", "result": 33.4, "unit": "µM"}
    ]},
    {"smiles": "O=S(=O)(N/N=C/c1cccc(/C=N/NS(=O)(=O)c2ccccc2)c1)c1ccccc1", "values": [
      {"measurement": "TGI", "result": "> 100", "unit": "µM"}
    ]}
  ]
}
